# The supplement of paper PMC8728848
# The other results are listed elsewhere or left out.
# What was measured:
# Assay in all cases: glycan array binding signal (z-score within array); higher = stronger binding
# Settings in all cases: glycan notation: IUPAC condensed, linker removed
# GlcNAc(b1-3)Gal(b1-4)Glc = molecular target: GlcNAc(b1-3)Gal(b1-4)Glc
# Outline: (§1)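 The binding signal is a Z-score computed within each array and averaged over linkers. Arrays of the same protein sequence at different concentrations or buffers were also averaged together. Data originate from 3228 arrays in the Consortium for Functional Glycomics database, kept only where the protein sequence was available.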
# [1] = molecular target: GlcNAc(b1-3)Gal(b1-4)GlcNAc
# Outline: as §1
# [2] = molecular target: GlcNAc(b1-3)Gal(b1-4)GlcNAc(b1-2)Man(a1-3)[GlcNAc(b1-3)Gal(b1-4)GlcNAc(b1-2)Man(a1-6)]Man(b1-4)GlcNAc(b1-4)GlcNAc
# Outline: as §1
# [3] = molecular target: GlcNAc(b1-3)Gal(b1-4)GlcNAc(b1-2)Man(a1-3)[GlcNAc(b1-3)Gal(b1-4)GlcNAc(b1-2)Man(a1-6)]Man(b1-4)GlcNAc(b1-4)[Fuc(a1-6)]GlcNAc
# Outline: as §1
# [4] = molecular target: GlcNAc(b1-3)Gal(b1-4)GlcNAc(b1-2)[GlcNAc(b1-3)Gal(b1-4)GlcNAc(b1-6)]Man(a1-6)[GlcNAc(b1-3)Gal(b1-4)GlcNAc(b1-2)Man(a1-3)]Man(b1-4)GlcNAc(b1-4)GlcNAc
# Outline: as §1
# [5] = molecular target: GlcNAc(b1-3)Gal(b1-4)GlcNAc(b1-3)Gal(b1-4)GlcNAc
# Outline: as §1
# [6] = molecular target: GlcNAc(b1-3)Gal(b1-4)GlcNAc(b1-3)Gal(b1-4)GlcNAc(b1-2)Man(a1-3)[GlcNAc(b1-3)Gal(b1-4)GlcNAc(b1-3)Gal(b1-4)GlcNAc(b1-2)Man(a1-6)]Man(b1-4)GlcNAc(b1-4)GlcNAc
# Outline: as §1
# [7] = molecular target: GlcNAc(b1-3)Gal(b1-4)GlcNAc(b1-3)Gal(b1-4)GlcNAc(b1-2)Man(a1-3)[GlcNAc(b1-3)Gal(b1-4)GlcNAc(b1-3)Gal(b1-4)GlcNAc(b1-2)Man(a1-6)]Man(b1-4)GlcNAc(b1-4)[Fuc(a1-6)]GlcNAc
# Outline: as §1
# [8] = molecular target: GlcNAc(b1-3)Gal(b1-4)GlcNAc(b1-3)Gal(b1-4)GlcNAc(b1-2)[GlcNAc(b1-3)Gal(b1-4)GlcNAc(b1-3)Gal(b1-4)GlcNAc(b1-6)]Man(a1-6)[GlcNAc(b1-3)Gal(b1-4)GlcNAc(b1-3)Gal(b1-4)GlcNAc(b1-2)Man(a1-3)]Man(b1-4)GlcNAc(b1-4)[Fuc(a1-6)]GlcNAc
# Outline: as §1
# [9] = molecular target: GlcNAc(b1-3)Gal(b1-4)GlcNAc(b1-3)Gal(b1-4)GlcNAc(b1-3)Gal(b1-4)GlcNAc(b1-2)Man(a1-3)[GlcNAc(b1-3)Gal(b1-4)GlcNAc(b1-3)Gal(b1-4)GlcNAc(b1-3)Gal(b1-4)GlcNAc(b1-2)Man(a1-6)]Man(b1-4)GlcNAc(b1-4)GlcNAc
# Outline: as §1
# [10] = molecular target: GlcNAc(b1-3)Gal(b1-4)GlcNAc(b1-3)Gal(b1-4)GlcNAc(b1-3)Gal(b1-4)GlcNAc(b1-2)Man(a1-3)[GlcNAc(b1-3)Gal(b1-4)GlcNAc(b1-3)Gal(b1-4)GlcNAc(b1-3)Gal(b1-4)GlcNAc(b1-2)Man(a1-6)]Man(b1-4)GlcNAc(b1-4)[Fuc(a1-6)]GlcNAc
# Outline: as §1
# [11] = molecular target: GlcNAc(b1-3)Gal(b1-4)GlcNAc(b1-3)Gal(b1-4)GlcNAc(b1-3)Gal(b1-4)GlcNAc(b1-2)[GlcNAc(b1-3)Gal(b1-4)GlcNAc(b1-3)Gal(b1-4)GlcNAc(b1-3)Gal(b1-4)GlcNAc(b1-6)]Man(a1-6)[GlcNAc(b1-3)Gal(b1-4)GlcNAc(b1-3)Gal(b1-4)GlcNAc(b1-3)Gal(b1-4)GlcNAc(b1-2)Man(a1-3)]Man(b1-4)GlcNAc(b1-4)[Fuc(a1-6)]GlcNAc
# Outline: as §1
# [12] = molecular target: GlcNAc(b1-3)Gal(b1-4)GlcNAc(b1-3)Gal(b1-4)GlcNAc(b1-3)Gal(b1-4)GlcNAc(b1-3)Gal(b1-4)GlcNAc(b1-2)Man(a1-3)[GlcNAc(b1-3)Gal(b1-4)GlcNAc(b1-3)Gal(b1-4)GlcNAc(b1-3)Gal(b1-4)GlcNAc(b1-3)Gal(b1-4)GlcNAc(b1-2)Man(a1-6)]Man(b1-4)GlcNAc(b1-4)GlcNAc
# Outline: as §1
# [13] = molecular target: GlcNAc(b1-3)Gal(b1-4)GlcNAc(b1-3)Gal(b1-4)GlcNAc(b1-3)Gal(b1-4)GlcNAc(b1-3)Gal(b1-4)GlcNAc(b1-2)Man(a1-3)[GlcNAc(b1-3)Gal(b1-4)GlcNAc(b1-3)Gal(b1-4)GlcNAc(b1-3)Gal(b1-4)GlcNAc(b1-3)Gal(b1-4)GlcNAc(b1-2)Man(a1-6)]Man(b1-4)GlcNAc(b1-4)[Fuc(a1-6)]GlcNAc
# Outline: as §1
# [14] = molecular target: GlcNAc(b1-3)Gal(b1-4)GlcNAc(b1-3)Gal(b1-4)GlcNAc(b1-3)Gal(b1-4)GlcNAc(b1-3)Gal(b1-4)GlcNAc(b1-2)[GlcNAc(b1-3)Gal(b1-4)GlcNAc(b1-3)Gal(b1-4)GlcNAc(b1-3)Gal(b1-4)GlcNAc(b1-3)Gal(b1-4)GlcNAc(b1-6)]Man(a1-6)[GlcNAc(b1-3)Gal(b1-4)GlcNAc(b1-3)Gal(b1-4)GlcNAc(b1-3)Gal(b1-4)GlcNAc(b1-3)Gal(b1-4)GlcNAc(b1-2)Man(a1-3)]Man(b1-4)GlcNAc(b1-4)[Fuc(a1-6)]GlcNAc
# Outline: as §1
# [15] = molecular target: GlcNAc(b1-3)Gal(b1-4)GlcNAc(b1-3)Gal(b1-4)GlcNAc(b1-3)GalNAc
# Outline: as §1
# [16] = molecular target: GlcNAc(b1-3)Gal(b1-4)GlcNAc(b1-3)GalNAc
# Outline: as §1
# [17] = molecular target: GlcNAc(b1-3)Gal(b1-4)GlcNAc(b1-3)[GlcNAc(b1-3)Gal(b1-4)GlcNAc(b1-3)]GalNAc
# Outline: as §1
# [18] = molecular target: GlcNAc(b1-3)Gal(b1-4)GlcNAc(b1-6)[Gal(b1-3)]GalNAc
# Outline: as §1
# [19] = molecular target: GlcNAc(b1-3)Gal(b1-4)GlcNAc(b1-6)[GlcNAc(b1-3)Gal(b1-3)]GalNAc
# Outline: as §1
# [20] = molecular target: GlcNAc(b1-3)Gal(b1-4)GlcNAc(b1-6)[GlcNAc(b1-3)]Gal(b1-4)GlcNAc
# Outline: as §1
# GlcNAc(b1-3)GalNAc = molecular target: GlcNAc(b1-3)GalNAc
# Outline: as §1
# GlcNAc(b1-3)Man = molecular target: GlcNAc(b1-3)Man
# Outline: as §1
# [21] = molecular target: GlcNAc(b1-3)[GlcNAc(b1-4)][GlcNAc(b1-6)]GlcNAc
# Outline: as §1
# [22] = molecular target: GlcNAc(b1-3)[GlcNAc(b1-6)]Gal(b1-4)GlcNAc
# Outline: as §1
# [23] = molecular target: GlcNAc(b1-3)[GlcNAc(b1-6)]GalNAc
# Outline: as §1
# [24] = molecular target: GlcNAc(b1-4)Gal(b1-4)GlcNAc
# Outline: as §1
# GlcNAc(b1-4)GlcNAc = molecular target: GlcNAc(b1-4)GlcNAc
# Outline: as §1
# [25] = molecular target: GlcNAc(b1-4)GlcNAc(b1-4)GlcNAc
# Outline: as §1
# [26] = molecular target: GlcNAc(b1-4)GlcNAc(b1-4)GlcNAc(b1-4)GlcNAc(b1-4)GlcNAc
# Outline: as §1
# [27] = molecular target: GlcNAc(b1-4)GlcNAc(b1-4)GlcNAc(b1-4)GlcNAc(b1-4)GlcNAc(b1-4)GlcNAc
# Outline: as §1
# [28] = molecular target: GlcNAc(b1-4)[GlcNAc(b1-6)]GalNAc
# Outline: as §1
# [29] = molecular target: GlcNAc(b1-6)Gal(b1-4)GlcNAc
# Outline: as §1
# GlcNAc(b1-6)GalNAc = molecular target: GlcNAc(b1-6)GalNAc
# Outline: as §1
# [30] = molecular target: GlcNAc6S(b1-3)Gal(b1-4)GlcNAc
# Outline: as §1
# Kdn(a2-3)Gal(b1-3)GalNAc = molecular target: Kdn(a2-3)Gal(b1-3)GalNAc
# Outline: as §1
# Kdn(a2-3)Gal(b1-3)GlcNAc = molecular target: Kdn(a2-3)Gal(b1-3)GlcNAc
# Outline: as §1
binder,measurement,setting,value
PX14343B-bfa-546-20-546 (Bacteroides fragilis) (protein) CDLERYPLTDLSEETFWNSESNAELALTSLYRGSLTDGVEYNPSDWWSYHGMIMMEHLSDNAFDRRGENNPFFKISSGNLTADNAFIKRYWETSYKRIGYCNRFLVGIQNSSESEKKTRMIAEARFLRATQYFYLASYFKNVPLVENVLTGEEANNVTKTSQADILKWCVTEFTAAAADLPRFSAIPAGEAGRACKQAALAFLGRTCMLQKDWKSGAKAFHDIMELGDNAINANYQELFYPSTGTSNKENIFYIQYLENYLGTGLPQHALSAKDGGWSLVNPAADLYESYEFKDGTPFSYDDPRYDPSNLGKDRDPRLDYTIYYNGAIFMGTEYKMSPDYSAAKKEKLDYTSEASRTGFMMRKYFEESTPINDVQSANGLTPVIRYAEVLLGYLECLVEDNQTITQGILDETINAVRGRASVNMPPVTEVTPAKLREIVRHERRIELAMEGIRYWDIMRWGIAHEVLSQKIWGAPYPGSTQYATTTKEVDPTGNYRWYVGKRAFRNPTDYTWPIPQSEQNINPNLRD,glycan array binding signal (z-score),GlcNAc(b1-3)Gal(b1-4)Glc,-0.13
same,glycan array binding signal (z-score),[1],-0.127
same,glycan array binding signal (z-score),[2],-0.128
same,glycan array binding signal (z-score),[3],-0.114
same,glycan array binding signal (z-score),[4],-0.093
same,glycan array binding signal (z-score),[5],-0.122
same,glycan array binding signal (z-score),[6],-0.095
same,glycan array binding signal (z-score),[7],-0.115
same,glycan array binding signal (z-score),[8],-0.118
same,glycan array binding signal (z-score),[9],-0.116
same,glycan array binding signal (z-score),[10],-0.109
same,glycan array binding signal (z-score),[11],-0.11
same,glycan array binding signal (z-score),[12],-0.122
same,glycan array binding signal (z-score),[13],-0.127
same,glycan array binding signal (z-score),[14],-0.118
same,glycan array binding signal (z-score),[15],-0.128
same,glycan array binding signal (z-score),[16],-0.132
same,glycan array binding signal (z-score),[17],-0.111
same,glycan array binding signal (z-score),[18],-0.124
same,glycan array binding signal (z-score),[19],-0.112
same,glycan array binding signal (z-score),[20],-0.13
same,glycan array binding signal (z-score),GlcNAc(b1-3)GalNAc,-0.129
same,glycan array binding signal (z-score),GlcNAc(b1-3)Man,-0.128
same,glycan array binding signal (z-score),[21],-0.102
same,glycan array binding signal (z-score),[22],-0.121
same,glycan array binding signal (z-score),[23],-0.118
same,glycan array binding signal (z-score),[24],-0.129
same,glycan array binding signal (z-score),GlcNAc(b1-4)GlcNAc,-0.129
same,glycan array binding signal (z-score),[25],-0.124
same,glycan array binding signal (z-score),[26],-0.123
same,glycan array binding signal (z-score),[27],-0.12
same,glycan array binding signal (z-score),[28],-0.115
same,glycan array binding signal (z-score),[29],-0.12
same,glycan array binding signal (z-score),GlcNAc(b1-6)GalNAc,-0.122
same,glycan array binding signal (z-score),[30],-0.123
same,glycan array binding signal (z-score),Kdn(a2-3)Gal(b1-3)GalNAc,-0.129
same,glycan array binding signal (z-score),Kdn(a2-3)Gal(b1-3)GlcNAc,-0.126
